The full ranking holds about 33,000 sequences; the median of “E-score (-0.5 to 0.5)” is about -0.011, and the highest 2% start at about 0.28. The list shows a part of the results.
Each sequence was assayed against T1, Gcr1 (UniProt P07261) (assay: PBM E-score (8-mer binding enrichment) (E-score (-0.5 to 0.5)); higher = stronger / more preferred TF binding; most listed sequences are background and not binding sites). Settings: protein concentration: 100 nM; construct: GST-full length.
T1 sequence: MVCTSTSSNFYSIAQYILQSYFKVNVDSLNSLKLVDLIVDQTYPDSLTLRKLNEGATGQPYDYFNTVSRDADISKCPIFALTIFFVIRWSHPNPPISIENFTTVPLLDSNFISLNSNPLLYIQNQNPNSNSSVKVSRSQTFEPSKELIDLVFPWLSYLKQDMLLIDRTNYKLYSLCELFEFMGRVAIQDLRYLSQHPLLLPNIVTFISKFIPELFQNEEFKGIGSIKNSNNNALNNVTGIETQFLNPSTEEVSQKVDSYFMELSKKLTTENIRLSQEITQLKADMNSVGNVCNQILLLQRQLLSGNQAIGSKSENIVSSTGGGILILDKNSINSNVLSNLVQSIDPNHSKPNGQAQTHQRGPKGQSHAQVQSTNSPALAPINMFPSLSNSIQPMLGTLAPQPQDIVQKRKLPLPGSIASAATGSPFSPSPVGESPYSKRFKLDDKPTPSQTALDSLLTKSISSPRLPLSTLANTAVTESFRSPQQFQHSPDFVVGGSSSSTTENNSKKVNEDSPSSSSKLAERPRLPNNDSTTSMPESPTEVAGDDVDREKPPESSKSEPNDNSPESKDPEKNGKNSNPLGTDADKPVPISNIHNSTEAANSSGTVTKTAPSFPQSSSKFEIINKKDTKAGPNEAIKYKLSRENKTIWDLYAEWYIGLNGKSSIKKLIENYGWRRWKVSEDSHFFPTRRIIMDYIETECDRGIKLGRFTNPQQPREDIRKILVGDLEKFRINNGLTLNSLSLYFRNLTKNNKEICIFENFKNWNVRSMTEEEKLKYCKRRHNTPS
Experimental: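 Universal 'all 10-mer' protein binding microarrays (Agilent AMADID 015681) probed with GST-tagged S. cerevisiae TFs (full-length or DBD) made by in vitro transcription/translation (PURExpress), about 100-200 nM. Bound TF was detected with fluorescent anti-GST. Each ungapped 8-mer (which stands for itself and its reverse complement) is scored by the PBM enrichment score (E-score), a modified Wilcoxon-Mann-Whitney statistic from -0.5 to +0.5, computed with the Universal PBM Analysis Suite. Scale: above 0.35 generally sequence-specific binding.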

Row | Sequence | PBM E-score
1 | GATGGGAC | -0.113
2 | ATTCGTTG | 0.039
3 | CATTCGAA | -0.00054
4 | ATGGTCTG | -0.104
5 | GTGTAGCA | -0.141
6 | ACCCAAAG | 0.0084
7 | GGAAGGCC | 0.0184
8 | GTGCAAAC | -0.129
9 | CATATGCA | -0.0913
10 | CCTGCTTC | -0.023
11 | CCTGTCCG | -0.189
12 | CGGGAGCC | 0.337
13 | CCAGAAAG | 0.124
14 | CACCCGGG | 0.0663
15 | ACATATTG | 0.0382
16 | AAGGCAGC | 0.189
17 | TACGAAGA | -0.0501
18 | AGCTTACT | -0.00812
19 | CAAGAGTG | 0.00507
20 | CGTCAACA | -0.0251
21 | AGGTGATA | -0.087
22 | AGCTTAGA | -0.232
23 | CGATGGTC | -0.0277
24 | AGGCACCC | 0.284
25 | CCGGGCAC | 0.264

Row | Sequence | PBM E-score
26 | ATCAATCG | 0.0139
27 | CAGCAACA | 0.0034
28 | AGCTCTTC | -0.00577
29 | ATCGACTG | -0.124
30 | CTCCCCCC | -0.25
31 | TATTTACA | 0.0799
32 | ATTGTGCA | -0.122
33 | CTCTCAAG | 0.118
34 | GAAGTCAC | 0.00882
35 | GGGCCCGA | 0.121
36 | CATAATGA | 0.0644
37 | ATTCGGAG | 0.129
38 | CCTTGTAG | -0.154
39 | GACGACGC | 0.00612
40 | CGTGTCAC | -0.0918
41 | CACGTACC | -0.0898
42 | ACCAGCCA | -0.0593
43 | ATCGGCCA | -0.109
44 | ACCCACTC | 0.0683
45 | CCCCAGAG | -0.0817
46 | AATTGACT | 0.0553
47 | CAGGACTC | 0.0853
48 | AAAGGTGT | -0.0119
49 | CCTTATTA | 0.0286
50 | AAGGCATT | -0.231

Row | Sequence | PBM E-score
51 | ACCTCCCA | -0.236
52 | ATGTTCTA | 0.0526
53 | AAACTTGC | 0.0797
54 | AGCGGTCG | -0.105
55 | ATACGTCA | 0.0524
56 | CAACTCGG | 0.14
57 | TCCATTCA | 0.131
58 | AGAGCAGC | 0.0483
59 | GACTGACC | -0.258
60 | ACCCACAA | 0.117
61 | CTAGCTGC | 0.161
62 | CAAGTTTC | -0.0521
63 | ACCATGCT | -0.0851
64 | CCGTCGGA | -0.156
65 | GGCTGCTA | 0.318
66 | GACCAATA | -0.04
67 | AGTGCCAT | -0.17
68 | CCGCCCTC | 0.034
69 | GCACTAGC | -0.0591
70 | AATAAGAG | 0.0844
71 | CCCAAGGG | -0.186
72 | GTGACGAA | 0.0386
73 | ACCGGGAC | 0.0546
74 | ATAGTTGG | 0.101
75 | AGTCCGAA | 0.0746

Row | Sequence | PBM E-score
76 | CACCATTC | -0.0376
77 | ACCAATGA | -0.0158
78 | AATTTTAT | 0.131
79 | AGGAGTAC | -0.194
80 | AGTAGTCG | 0.00584
81 | ACAGGTTA | 0.0706
82 | CCCAACCA | 0.0323
83 | ACGGGAGA | -0.0683
84 | ATTCAAAC | -0.0211
85 | GCTGTGAA | -0.152
86 | CCTTGCAA | -0.178
87 | TGCGTAAA | 0.0632
88 | ATGTCCAA | 0.0476
89 | TATGCTCA | -0.00311
90 | GAAAACCC | -0.205
91 | CGTTCTTC | -0.115
92 | GCGAAGAC | -0.133
93 | AGCCCCAG | 0.0473
94 | AATGAGCA | 0.0307
95 | AATTCATC | -0.046
96 | GTTCACCA | -0.0328
97 | CAGTAAGC | 0.0313
98 | CGCTAAAC | -0.118
99 | ATGCCCAG | 0.0447
100 | CCGTAGAG | -0.0373

Row | Sequence | PBM E-score
101 | GCCGAAGC | 0.00576
102 | AGGTGCCG | 0.22
103 | GATATTGC | 0.00295
104 | CCCCACCG | -0.083
105 | GATAATAA | -0.0812
106 | CGGAAGTA | -0.0129
107 | CGGGCATC | 0.282
108 | AGCTATCG | 0.00357
109 | CTTAACGA | 0.0653
110 | CGTGTTGA | -0.125
111 | CGTTGCTA | 0.0895
112 | AGTTCGTG | 0.0517
113 | CCAGCCAA | -0.11
114 | AGCTCACT | -0.143
115 | ATCTACGG | -0.00111
116 | CGGATACG | 0.0225
117 | ACAAAGAG | -0.078
118 | CAGTCGGC | -0.0129
119 | GTCAGGCA | 0.0185
120 | ATTTCATA | 0.137
121 | ACTACATG | 0.241
122 | CCTCGTAG | -0.148
123 | GTACTTGA | -0.209
124 | CGCGGCAA | -0.129
125 | ACCTGCCG | -0.14

Row | Sequence | PBM E-score
126 | ACCTTCTC | -0.155
127 | ACTTGGAC | -0.152
128 | GGGGGGAC | -0.187
129 | CCGCTGAG | -0.0244
130 | AAAAAATC | 0.211
131 | CAGTGATG | 0.0641
132 | GGATCCCA | 0.391
133 | TAGACCAA | -0.0556
134 | GCACCTAC | 0.0998
135 | CAGTCAAG | 0.00273
136 | AGGTTAGC | 0.0806
137 | AGAACACA | -0.154
138 | CGAACATA | -0.0511
139 | CTATGTGA | 0.0291
140 | ATTGCGCC | -0.137
141 | AGCGGCTA | 0.0167
142 | AGACATAG | -0.0478
143 | TCAATGAA | -0.00056
144 | CGTTCGAC | -0.229
145 | ACCGACTC | -0.0867
146 | ATGACCCC | -0.0726
147 | AGAAATGA | -0.00385
148 | TACCAGAA | 0.34
149 | CCCACTAA | 0.241
150 | ACACATCT | 0.0546

Row | Sequence | PBM E-score
151 | AGCTTCTA | 0.297
152 | AATAAGTG | 0.0331
153 | AAGGTCGG | -0.241
154 | CCAGTGGC | -0.0248
155 | TAAAATGA | 0.19
156 | AAGTAGAG | -0.0335
157 | GGGCTGAC | -0.363
158 | ACGGGTAC | -0.0129
159 | CTATTACC | 0.112
160 | CTCAACGA | -0.151
161 | ATGACGCA | -0.051
162 | ATGGGAGG | 0.115
163 | GCCCGGCA | -0.0489
164 | ACGTACAA | -0.168
165 | CTTTAGGC | -0.137
166 | CCCTAGCC | 0.0608
167 | CAGAGTCC | 0.162
168 | GAATCCTC | 0.239
169 | CCCAGCTC | 0.012
170 | CGTGGCAC | 0.0227
171 | TGCATGCA | -0.177
172 | AGCTCGTA | -0.245
173 | ACTACTAC | -0.0628
174 | ATCGTCTC | 0.0401
175 | AAGGTTAC | -0.0179

Row | Sequence | PBM E-score
176 | AAATGGCT | 0.0656
177 | ATTCAATG | 0.103
178 | CGGGTGTA | 0.0518
179 | TACAGCGA | -0.0435
180 | GCTTTCCC | -0.0976
181 | CTTGTACC | 0.101
182 | ACCACAAA | 0.236
183 | CCTTAGAC | 0.0688
184 | AATATAAT | 0.151
185 | CCGACGAC | -0.13
186 | AAGGTGAT | -0.0725
187 | CGTGCCAG | -0.191
188 | AGGCAGCA | 0.0795
189 | CTCCATTA | 0.0245
190 | AGCCTACT | -0.108
191 | CCTACGCA | -0.223
192 | TAACTTGA | -0.156
193 | GCCATCAA | -0.22
194 | CGTCTTCC | 0.204
195 | GTTGCCGA | 0.225
196 | AAGCGTCG | 0.0188
197 | GACCGAGA | -0.0306
198 | AACCTCGC | -0.0987
199 | CCCTCCAG | -0.0408
200 | ATCGTCCC | 0.0583

Row | Sequence | PBM E-score
201 | CCCTAAGC | -0.25
202 | CAGGGTGA | -0.0254
203 | CGTGCGCA | -0.0952
204 | CCAACATA | 0.0709
205 | CAAGTCTG | -0.0376
206 | CATGACAC | -0.0867
207 | CGATGCTA | 0.266
208 | ATCTGAAC | 0.127
209 | ACTTCTGG | 0.114
210 | CAGCATTC | -0.239
211 | AGTCGCTC | -0.131
212 | GCCTGCAC | -0.0935
213 | ACGCGGGA | 0.0133
214 | ACCAAATA | 0.0899
215 | CGCCACGA | -0.105
216 | ACTTTGTG | -0.132
217 | GTTACATA | -0.0972
218 | AACGGATG | -0.0376
219 | CGTCTACA | 0.0544

— the supplement of paper PMC3334620
